# Measurements published in publication PMC4336329 (PLoS ONE, 2015).
# In all, about 310,000 compounds went through this assay and about 2,200 (0.71%) showed an effect of 50% or more. The effect is printed as a negative number. The list shows a part of the results.
# Biological target: human ether-à-go-go-related gene (hERG) potassium channel (human, UniProt Q12809)
# Assay: primary screen, population patch clamp on CHO cells stably expressing hERG
# Sequence of human ether-à-go-go-related gene (hERG) potassium channel (Q12809 whole entry, looked up): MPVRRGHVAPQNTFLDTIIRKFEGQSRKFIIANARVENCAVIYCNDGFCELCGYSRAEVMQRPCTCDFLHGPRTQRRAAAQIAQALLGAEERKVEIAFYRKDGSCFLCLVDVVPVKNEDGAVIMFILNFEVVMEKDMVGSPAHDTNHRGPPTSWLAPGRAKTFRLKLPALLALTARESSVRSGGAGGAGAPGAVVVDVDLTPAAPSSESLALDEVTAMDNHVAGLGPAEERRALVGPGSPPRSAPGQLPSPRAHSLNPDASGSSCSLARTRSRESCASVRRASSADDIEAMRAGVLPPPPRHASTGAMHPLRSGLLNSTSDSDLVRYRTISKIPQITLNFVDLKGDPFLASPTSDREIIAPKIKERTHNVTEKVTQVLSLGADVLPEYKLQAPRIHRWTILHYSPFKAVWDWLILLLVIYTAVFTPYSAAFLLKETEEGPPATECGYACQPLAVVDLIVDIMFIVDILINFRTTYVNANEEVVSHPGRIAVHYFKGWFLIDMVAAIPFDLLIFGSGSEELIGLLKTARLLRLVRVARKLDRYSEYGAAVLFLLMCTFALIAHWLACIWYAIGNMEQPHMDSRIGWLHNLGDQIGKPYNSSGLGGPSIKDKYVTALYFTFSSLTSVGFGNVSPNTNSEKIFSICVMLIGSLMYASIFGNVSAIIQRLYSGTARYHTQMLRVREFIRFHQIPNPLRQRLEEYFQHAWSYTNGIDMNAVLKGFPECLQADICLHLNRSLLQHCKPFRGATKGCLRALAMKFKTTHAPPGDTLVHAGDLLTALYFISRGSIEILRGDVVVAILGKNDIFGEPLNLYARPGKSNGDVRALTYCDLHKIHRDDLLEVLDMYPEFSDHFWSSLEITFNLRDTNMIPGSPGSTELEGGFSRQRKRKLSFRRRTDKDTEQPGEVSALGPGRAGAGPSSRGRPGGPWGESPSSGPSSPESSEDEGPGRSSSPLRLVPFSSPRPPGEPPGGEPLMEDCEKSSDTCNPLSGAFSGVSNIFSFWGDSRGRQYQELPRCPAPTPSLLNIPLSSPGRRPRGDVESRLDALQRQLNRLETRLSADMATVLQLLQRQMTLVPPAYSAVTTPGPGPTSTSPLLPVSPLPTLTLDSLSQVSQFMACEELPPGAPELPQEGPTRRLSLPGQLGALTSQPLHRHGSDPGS
row,SMILES,"hERG current change (%, negative = inhibition) at 1uM [%]"
1,COCCNC(=O)c1ccc(NC(C)=O)cc1,13.5
2,CN(C(=O)COC(=O)CNC(=O)c1ccc(C(C)(C)C)cc1)c1c(N)n(Cc2ccccc2)c(=O)[nH]c1=O,6.24
3,Cc1ccc(CN2CCc3[nH]c(=O)[nH]c(=O)c3C2)cc1,15.8
4,Oc1c(C(c2ccccc2)N2CCCCC2)sc2ncnn12 (stereo not drawn),1.15
5,CC1(C)Oc2ccc3ccc(=O)oc3c2/C(=C/Nc2ccccn2)C1=O,17.4
6,O=c1oc2ccccc2n1CSC1=NCCS1,-0.777
7,CCOC(=O)COc1nc(-c2ccc(Cl)cc2)cc(-c2ccco2)c1C#N,5.01
8,O=C(NC1CCS(=O)(=O)C1)c1ccccc1C(=O)c1ccccc1 (stereo not drawn),10.6
9,C=CCOc1c(/C=N\NC(N)=O)cccc1OC,11.5
10,COC(=O)c1ccc(NC(=O)COC(=O)c2nc3nccc(C)n3n2)cc1,8.07
11,Cc1cccc(CN2CCN(C(=O)Cc3ccccc3)CC2)c1.O=C(O)C(=O)O,6.74
12,COc1ccc(S(=O)(=O)N2CCN(Cc3ccc4c(c3)OCO4)CC2)cc1,7.9
13,Clc1cc(-c2ccccc2)nc(-c2ccccc2)n1,0.176
14,COc1ccc(/C=C(\NC(=O)c2ccccc2)C(=O)NCc2ccco2)cc1,13.7
15,Cc1ccccc1C(=O)N(Cc1cccs1)C1CCS(=O)(=O)C1 (stereo not drawn),22.2
16,CCOC(=O)C1CCN(C(c2cc(OC)c(OC)c(OC)c2)c2sc3nc(C)nn3c2O)CC1 (stereo not drawn),8.91
17,Cc1onc(-c2ccccc2)c1C(=O)NCc1ccc2c(c1)OCO2,11.3
18,Cc1ccc(C)c(OCc2cc(C(=O)N3CCc4sccc4C3)no2)c1,16.5
19,CCN(CC(=O)Nc1c(F)cccc1F)C(=O)C1CC(=O)N(CCc2ccc(OC)c(OC)c2)C1 (stereo not drawn),14
20,CC(C)(C)c1ccc(S(=O)(=O)n2c(CN3CCOCC3)nc3ccccc32)cc1,10.3
21,CC(C)[C@H](NC(=O)c1ccccc1)C(=O)OCC(=O)c1ccccc1F,7.34
22,O=C(c1ccc2nc(N3CCOCC3)sc2c1)N1CCN(c2ccc(Cl)cc2)CC1,1.9
23,COCCCN1C(=O)c2ccc(C(=O)Nc3cccc(OC)c3)cc2C1=O,1.72

row,SMILES,"hERG current change (%, negative = inhibition) at 1uM [%]"
1,Nc1nc(NCC(=O)O)nc(NC2CCCCC2)c1[N+](=O)[O-],10.2
2,OCCC#Cc1ccc(CN2CCN(CCc3ccccc3)C(CCO)C2)cc1 (stereo not drawn),6.56
3,CCN(CC)C(=O)C1CCCN(Cc2sccc2C)C1 (stereo not drawn),15.1
4,Cc1[nH]c2ccccc2c1/C=N/Nc1ccccc1[N+](=O)[O-],13.6
5,CC#CP(=O)(OCC)C(O)(c1ccccc1)C(F)(F)F (stereo not drawn),5.8
6,Cc1cccc(NC(=O)c2cccc(C(=O)Nc3cccc(C)c3)n2)c1,10.4
7,CC(C)Cn1c(N)c(C(=O)COC(=O)c2cc(F)cc(F)c2)c(=O)n(C)c1=O,-1.94
8,COCCn1c(SCC(=O)N2CC(=O)Nc3ccccc32)nc2ccccc21,5.88
9,CSc1nsc(SC)c1NC(=O)N1CCCC1,-4.85
10,CCOC(=O)c1c(NC(=S)NC(=O)c2ccc(Cn3cc(Cl)cn3)o2)sc2c1CCCCC2,12.8
11,Oc1ccc(/C=N/NC(=S)NCC2CCCO2)cc1 (stereo not drawn),7.36
12,Cc1ccc(Cl)cc1NC(=O)CN1C(=O)COc2ccc(S(=O)(=O)N3CCOCC3)cc21,13.5
13,CN(Cc1ccccc1NS(=O)(=O)c1ccc(Cl)cc1)C1CCCCC1.Cl,-1.68
14,CCCN(CCC)C(=O)Nc1cc(Cl)ccc1OC,14.4
15,CCCS(=O)(=O)c1c(S(=O)(=O)CCC)c2c(C)cccn2c1C(=O)OC,15.1
16,COc1cccc(CNC(=O)CCC2CCCN(c3cc(C)nc(N(C)C)n3)C2)c1 (stereo not drawn),-27.7
17,CCc1ccc(S(=O)(=O)Nc2c(C)nn(C)c2C)cc1,8.06
18,NC(=O)C1CC(=O)N(c2ccc(OCc3c(F)cccc3Cl)cc2)C1 (stereo not drawn),9.68
19,CC(C)(C)[C@H]1C=C(C(=O)O)O[C@@H](OCc2ccc(CO)cc2)C1,19.2
20,Cc1cc(C(=O)NCc2ccccc2F)cs1,-1.56
21,Cc1c(Cl)cccc1-c1ccc(/C=N/n2cnnc2)o1,-9.8
22,COc1ccccc1C1/C(=C(/O)c2ccccc2)C(=O)C(=O)N1CC(C)O (stereo not drawn),12.9
23,Clc1ccc2nc(CSc3ncn[nH]3)cn2c1,3.81

row,SMILES,"hERG current change (%, negative = inhibition) at 1uM [%]"
1,O=C(COC(=O)c1ccc(Cl)nc1)NNC(=O)c1ccc(Cl)cc1,14.8
2,CC(=O)Nc1cc([N+](=O)[O-])ccc1N1CCOCC1,6.81
3,CC(C)=CCc1cc(-c2oc3cc(O)cc(O)c3c(=O)c2O)ccc1O,9.77
4,COCCN1CCN(C(=O)C2CCC(=O)N(Cc3ccccc3OC)C2)CC1 (stereo not drawn),11.4
5,O=C(CSc1nc(=O)n(CCCN2CCOCC2)c2c1CCCC2)Nc1ccc(F)cc1,-5.41
6,O=[N+]([O-])c1ccc(Cc2nnc(-c3ccc(F)cc3)o2)cc1,-22.1
7,O=c1[nH]c(CN2CCN(S(=O)(=O)/C=C/c3ccccc3)CC2)nc2cc(Cl)ccc12,-21.4
8,CCOc1ccc(-n2c(=O)c3ccccc3c3ccccc3c2=O)cc1,11.8
9,CCCc1cc(=O)oc2cc(OC(C)C(=O)NCC3CCC(C(=O)O)CC3)c(Cl)cc12 (stereo not drawn),11
10,Cc1ccnc(NC(=O)CCNC(=O)c2ccccc2Cl)c1,6.85
11,C=CCNc1ncnc2c1cnn2-c1ccc(C)cc1C,10.8
12,CCOc1ncccc1C(=O)OCC(=O)c1cc(C)n(Cc2ccco2)c1C,5.04
13,CCCCNc1ncnc2c1cnn2-c1ccc(Cl)cc1,14.5
14,CC(C)c1nc(C(=O)N2CCCC(N3CCN(c4cccc(Cl)c4)CC3)C2)cs1 (stereo not drawn),-15.5
15,CC1CCN(C(=O)C2CCN(c3ncnc4c3nc3n4CCCCC3)CC2)CC1,7.03
16,CCCCN(C(=O)c1cc2ccccc2o1)c1c(N)n(CCCC)c(=O)[nH]c1=O,13.4
17,C[C@@H]1C=C(C(=O)N2CCN(Cc3ccc4c(c3)OCO4)CC2)O[C@H](OCCCCO)C1,9.81
18,COC(=O)C(NS(=O)(=O)c1ccccc1Br)C(C)C (stereo not drawn),8.86
19,Cc1ccc(CNC(=O)C(=O)NCC2CCCO2)cc1 (stereo not drawn),10.8
20,CC(=O)NC1=NN(C(C)=O)C(c2cccs2)S1 (stereo not drawn),20.3
21,O=C(NCc1n[nH]c(=S)n1-c1ccccc1Cl)c1ccc(S(=O)(=O)N2CCCCC2)cc1,15.4
22,O=C(CBr)N1CCc2ccccc2C(c2ccccc2)C1 (stereo not drawn),11.7
23,COc1ccc(C2/C(=C(/O)c3ccc4c(c3)CC(C)O4)C(=O)C(=O)N2Cc2ccncc2)cc1 (stereo not drawn),16

row,SMILES,"hERG current change (%, negative = inhibition) at 1uM [%]"
1,O=CC(Cl)P(=O)(N1CCOCC1)N1CCOCC1 (stereo not drawn),10
2,CCN(CC)C(=O)c1ccc(-c2cccs2)s1,14
3,O=c1c2nccnc2[nH]c(=S)n1Cc1ccccc1,0.392
4,C/C(N)=C(/C#N)C(=O)CSc1n[nH]c(-c2ccccc2Br)n1,7.91
5,COc1cc(NC(=O)C2=C(N3CCOCC3)/C(=C\c3ccc(N(C)C)cc3)CCC2)cc(OC)c1OC,11.7
6,CC1Oc2ccccc2N(CC(=O)N(Cc2ccccc2)Cc2ccccn2)C1=O (stereo not drawn),2.82
7,Nc1nonc1-c1nc2ccccc2n1CC(=O)N1CCCCC1,10.7
8,CCC(=O)Oc1ccc(C(=O)Nc2cccc(C(=O)NC(C)(C)C)c2)cc1,10
9,CN(CC(=O)Nc1cccc(F)c1)C(=O)c1ccc(COc2ccccc2)cc1,2.21
10,CCOc1cc(/C=C2/N=C(C)C(C(=O)OC)=C2O)ccc1O,-8.64
11,COc1ccc(CC(=O)O/N=C(\N)c2cccc([N+](=O)[O-])c2)cc1,5.1
12,CCCCSc1nnc([C@H](CC(C)C)NC(=O)OC(C)(C)C)o1,-1.39
13,O=C(CNc1n[nH]c(=O)[nH]c1=O)N/N=C/c1ccccc1,2.67
14,Cc1ccc2nc3c(c(C(=O)O)c2c1)CCC3,12.6
15,Cc1nc(NS(=O)(=O)c2cccc([N+](=O)[O-])c2)sc1C(C)(C)C,7.39
16,N#C/C(=C/c1cc[nH]c1)C(N)=S,16.8
17,COc1ccc(C)cc1S(=O)(=O)N1CCN(C(=O)c2ncoc2-c2ccccc2C)CC1,12.4
18,c1ccc(CN2CCC(Nc3nc(-c4ccccc4)nc4ccccc34)CC2)cc1,4.83
19,O=C(Nc1cccs1)Nc1ccc(F)cc1F,7.67
20,O=C(CSc1nnc(-c2ccco2)o1)c1ccccc1,12.6
21,CC1(C)Cc2ccccc2/C(=C/C(=O)N2CCCCCC2)N1.Cl,7.94
